Measured values from PMC4336329 (PLoS ONE, 2015).
The whole screen tested about 310,000 compounds, of which about 2,200 (0.71%) showed an effect of 50% or more. Effects have a minus sign here. This is one part of the list.

The compounds below were run against human ether-à-go-go-related gene (hERG) potassium channel (human, UniProt Q12809) (assay: primary screen, population patch clamp on CHO cells stably expressing hERG).
human ether-à-go-go-related gene (hERG) potassium channel, sequence (Q12809 whole entry, looked up): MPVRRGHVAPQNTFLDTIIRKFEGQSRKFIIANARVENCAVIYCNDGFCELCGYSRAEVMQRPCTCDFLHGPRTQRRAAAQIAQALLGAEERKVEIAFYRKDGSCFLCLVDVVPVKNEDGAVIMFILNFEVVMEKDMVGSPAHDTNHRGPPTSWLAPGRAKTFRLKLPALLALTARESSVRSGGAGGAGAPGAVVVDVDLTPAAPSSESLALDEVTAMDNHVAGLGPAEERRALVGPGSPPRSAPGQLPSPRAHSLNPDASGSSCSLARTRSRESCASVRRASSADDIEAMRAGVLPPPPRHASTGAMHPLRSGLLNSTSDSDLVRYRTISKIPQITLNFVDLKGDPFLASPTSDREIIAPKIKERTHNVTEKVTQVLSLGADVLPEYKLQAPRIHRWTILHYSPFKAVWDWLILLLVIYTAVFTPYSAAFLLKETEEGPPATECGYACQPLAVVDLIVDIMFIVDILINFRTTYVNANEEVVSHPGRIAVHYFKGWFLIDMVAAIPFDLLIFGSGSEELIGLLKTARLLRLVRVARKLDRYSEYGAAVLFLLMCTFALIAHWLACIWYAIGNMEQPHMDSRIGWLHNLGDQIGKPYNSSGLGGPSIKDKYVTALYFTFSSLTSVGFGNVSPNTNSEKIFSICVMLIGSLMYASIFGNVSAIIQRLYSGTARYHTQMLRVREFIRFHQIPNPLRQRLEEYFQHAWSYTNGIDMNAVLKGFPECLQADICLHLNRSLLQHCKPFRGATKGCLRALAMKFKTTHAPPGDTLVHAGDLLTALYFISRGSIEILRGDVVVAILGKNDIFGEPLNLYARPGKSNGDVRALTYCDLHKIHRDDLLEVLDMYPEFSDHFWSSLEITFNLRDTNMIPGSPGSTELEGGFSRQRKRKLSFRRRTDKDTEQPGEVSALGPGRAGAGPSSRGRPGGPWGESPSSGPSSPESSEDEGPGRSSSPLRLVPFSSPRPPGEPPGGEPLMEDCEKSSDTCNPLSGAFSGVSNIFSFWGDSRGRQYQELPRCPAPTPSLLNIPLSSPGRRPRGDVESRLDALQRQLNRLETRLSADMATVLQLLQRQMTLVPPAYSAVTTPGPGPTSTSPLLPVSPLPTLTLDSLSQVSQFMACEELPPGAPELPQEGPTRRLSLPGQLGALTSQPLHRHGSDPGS

In order of rising “hERG current change (%, negative = inhibition) at 1uM” value:
1. Cc1c(C(=O)N2CCOCC2)oc2ccc(Br)cc12  -14.4%
2. COc1cccc(C(=O)C2CCCN(Cc3cccc4c3OCO4)C2)c1 (stereo not drawn)  -6.88%
3. Cc1cccc(C(=O)N2CCN(c3ncnc4c3cnn4-c3ccccc3)CC2)c1  -6.01%
4. Cc1ccc(C)c(N2CCN(C(=O)c3ccc(Cn4c(=S)[nH]c5ccc(N6CCOCC6)cc5c4=O)cc3)CC2)c1  -5.12%
5. COc1ccc(CN2CC(C(=O)NCCc3ccc(C)cc3)CC2=O)cc1 (stereo not drawn)  -2.06%
6. O=C(N1CCOCC1)N1CCN(S(=O)(=O)N2CCCCC2)CC1  -1.58%
7. COc1cccc(COc2ccccc2C2Nc3ccc(Br)cc3C(=O)N2NC(=O)c2ccncc2)c1 (stereo not drawn)  -0.308%
8. O=C(O)Cc1ccc(NS(=O)(=O)c2ccc3ccccc3c2)cc1  2.56%
9. Cc1cccn2c(=O)nc(SCC(=O)N3CCCCCC3)nc12  3.17%
10. CN1C(=O)C(CC(=O)NCC2CCCCC2)SC1=Nc1ccccc1 (stereo not drawn)  3.25%
11. CC(C)c1ccc(OCC(=O)NNC(=S)NC(=O)c2ccco2)c(Br)c1  3.25%
12. Cc1ccc(C2Oc3ccccc3C3=C2C(c2cccs2)n2ncnc2N3)cc1 (stereo not drawn)  3.38%
13. CCCCOc1cccc(/C=C(\C#N)C(=O)NC2CC2)c1  5.3%
14. COc1cc(OC)c(S(=O)(=O)N2CCOCC2)cc1S(=O)(=O)N1CCOCC1  6.2%
15. Cc1ccc(Nc2ncnc(N)n2)cc1  6.31%
16. Cc1ccccc1NC(=O)c1cnc2ccccn2c1=O  6.65%
17. COc1cccc(-c2cc(C(=O)NCc3cccs3)no2)c1  7.46%
18. COc1ccc(OCC(=O)NC(=S)Nc2ccc(S(=O)(=O)Nc3cc(C)on3)cc2)cc1  7.55%
19. COC(=O)[C@H](C)NC(=O)Nc1ccccc1C(F)(F)F  7.72%
20. Cc1cc(C)c(C)c(S(=O)(=O)ON2C(=O)c3ccccc3C2=O)c1C  7.8%
21. Fc1ccccc1NC(=S)N1CCN(C/C=C/c2ccccc2)CC1  7.89%
22. Cc1cc(Cl)cc(Br)c1OCCNCC(C)O (stereo not drawn)  8.08%
23. COc1ccc(OC)c(C(=O)c2coc3cc(Br)c(O)c(Br)c23)c1  8.23%
24. Cc1ccc(S(=O)(=O)NC(CC(=O)N2CCC3(CC2)OCCO3)c2ccco2)cc1 (stereo not drawn)  9.12%
25. COc1ccc(-c2c(-c3ccc(O)cc3O)n[nH]c2C(F)(F)F)cc1  9.35%
26. Cc1ccc(C)c(NS(=O)(=O)c2ccc(NC(=O)CSc3ccc(Cl)cc3)cc2)c1  9.54%
27. CCOc1ccc(S(=O)(=O)N2CCCC(C(=O)NCc3ccccn3)C2)cc1 (stereo not drawn)  10%
28. CC(C)(C)C(O)C(Cc1ccccc1Cl)n1cncn1 (stereo not drawn)  10.3%
29. Clc1ccc(OCc2nc(-c3ccccn3)no2)c(Br)c1  10.3%
30. O=c1[nH]c(O)c(C=Nc2ccccc2Sc2ccccc2)c(=O)[nH]1  10.6%
31. CCN(C(=O)COC(=O)c1cc(-c2ccccc2)nc2c1c(C)nn2-c1ccccc1)C1CCS(=O)(=O)C1 (stereo not drawn)  10.7%
32. Cc1ccnc(SCc2cc(=O)c(OC(=O)c3ccco3)co2)n1  10.7%
33. CCOC(=O)Nc1cccc(OCC(=O)Nc2ccccc2OC)c1  10.7%
34. O=C(COc1ccccc1F)N1c2ccccc2CCc2ccccc21  10.8%
35. COCCCN1CC(=O)N2C(c3ccccc3)c3[nH]c4ccccc4c3C[C@H]2C1=O (stereo partly drawn)  11.9%
36. COc1ccccc1C(=O)N1CCNC(=O)C1CC(=O)Nc1cccc(C)c1 (stereo not drawn)  12.3%
37. O=C(OCCOCn1cc(Br)c(=O)[nH]c1=O)c1ccccc1  12.4%
38. COc1ccc(S(=O)(=O)N2CCOC2CNC(=O)C(=O)NCCN2CCOCC2)cc1 (stereo not drawn)  12.6%
39. O=S(=O)(Nc1ccc(C(F)(F)F)cn1)c1ccccc1  13.5%
40. CN(CC(=O)Nc1ccc2c(c1)OCCO2)S(=O)(=O)c1ccc(Br)s1  14.2%
41. CC(C)Sc1nc2c(cnn2-c2ccc(F)cc2)c(=O)[nH]1  14.2%
42. O=Cc1coc2ccc3ccccc3c2c1=O  14.3%
43. COC(=O)C1=NN(C(=O)c2cccc(Br)c2)C(O)(c2ccc(Cl)cc2)C1 (stereo not drawn)  14.6%
44. Cc1ccc(NC(=O)CCNC(=O)Cn2ccc3ccccc3c2=O)cc1F  18.7%
45. CC1(C)Cc2c(C#N)c(N)n(-c3ccccc3)c(=S)c2CO1  19.1%
